Laboratory results from the RNAGym collection of RNA variant scans (doi:10.1093/nar/gkz1192).
The source gives no read counts; variants with many changes may rest on few reads.

B1: CPEB3 Ribozyme (parent)
chain: UAACAGGGGGCCACAGCAGAAGCGUUCACGUCGCAGCCCCUGUCAGAUUCUGGUGAAUCUGCGAAUUCUGCUGUAUAUCUC

Variants of: B1
Experiment: self-cleavage, relative activity (ratio to wild type); higher = more cleavage; in vitro, sequencing
Outline: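 After error-prone PCR and barcoding, CPEB3 ribozyme mutant libraries were transcribed with T7 RNA polymerase at 37°C for 5 hours, then given 15 min with DNase I before an EDTA stop, and they cleaved during both steps. Reverse transcription with template switching preceded Illumina sequencing. Relative activity divides a variant's cleaved/total read fraction by the unmutated ribozyme's. At least 5 reads were required per variant, and three batches were averaged.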
With UAACAGGGGGCCGCGGCAGAAGCGUUCACGUCGCAGCCCCUGUCAGAUUCUGGUGAAUGUGCGAAUUCUGCCGUAUAUCUC the self-cleavage was 0.2.
UAACAGGGGGCCGCGGCAGAAGCGUUCACGUCACAGCCCCUGUCAGAUUCUGGUGAAUCUGCGAAUUCUGCCGUAUAUCUC showed a self-cleavage of 0.42.
With UAACAGGGGGCCGCGGCAGAAGCGCUCCCGUCGCAGCCCCUGUCAGAUUCCGGUGAAUCUGCGAAUUCUGCUGUAUAUCUC the self-cleavage was 0.48.
For UAACAGGGGGCCGCGGCAGAAGCGUUCACGUCGCAGCCCCAGUCAGAUUCAGGUGAACCUGCGAAUUCUGCUGUAUAUCUC, the self-cleavage was 0.17.
UAACAGGGGGCCGCGGCAGAAGCGUUCACGUCGCAGCCCCUGUCAGACUCUGGUGAAUCUGCGAAUUCUGCUGUAUAUCUC gave a self-cleavage of 0.14.
With UAACAGGGGGCCGCGGCAGAAGCGUUCACGUCGCAGCCCCUGUCAGAUUCUGGUGAAACUGCGAAUUCUGCUGUAAAUCCC the self-cleavage was 0.39.
For UAACAGGGGGCCGCGGCAGAAGCGUUCACGUCGCAGCCCCUGUCAGAUUCUGGUGAAUCUGCGAAUUCUGCGGUAUAUUUC, the self-cleavage was 0.43.
Variant UAACAGGGGGCCGCGGCAGAAGCGUUCACGUCGCAGCCCCUGUCAGAUUCUGGUGAAUCUGCGAAUUCUGCUGUAUAUCCC has a self-cleavage of 0.58.
With UAACAGGGGGCCGCUGCAGAAGCGUUCACGUCGCAGCCCCUGUCAGGUUCUGGUGACUCUGCGAAUUCUGCUGUUUAUCUC the self-cleavage was 0.42.
Variant UAACAGGGGGCCGCUGCAGAAGCGUUCACGUCGCAGCCCCUGUCAGAUUCUGGUGCAUCUGCGAAUUCUGCCGUAUAUCUC has a self-cleavage of 0.23.
In the case of UAACAGGGGGCCGCUGCAGAAGCGUUCACGUCGCAGCCCCUGUCAGAUUCUGGUGGAUCUGCGAAUUCUGCUGUAUAUCUC, the self-cleavage is reported as 0.41.
UAACAGGGGGCCGCUGCAGAAGCGUUCACGUCGCAGCGCCUGUCAGAUUCUGGUGAAUCUGCGAAUUCUGCUGUAUAUCUC gave a self-cleavage of 0.06.
For UAACAGGGGGCCGCUGCAGAAGCGUUCACGUCGCAGCUCCUGUCAGAUUCUGGUGAAUCUGCGAAUUCUGCUGUAUAUCUC, the self-cleavage was 0.46.
With UAACAGGGGGCCGCUGCAGAAGCGUUCACGUCGCAGCCCCUGUCAGAUUCUGGUGAAUCUGAGAACUCUGCUGCGUAUCUC the self-cleavage was 0.1.
Variant UAACAGGGGGCCGCUGCAGAAGCGUUCACGUCGCAGCCCCUGUCAGAUUCUGGCGAAUCACCGAAUUCUGCUGCAUAUCUC has a self-cleavage of 0.05.
UAACAGGGGGCCGCUGCAGAAGCGUUCACGUCGCAGCCCCUGUCAGAUUCUGGUGAAUCUGCGAAUUCCGCUGUACUUCUC showed a self-cleavage of 0.14.
In the case of UAACAGGGGGCCGCAGCCGAAGCGUUCAUGUCGCAGCCCCUGUCAGAUUCUGGUGAAUCCGCGAAUUCUGCUGUAUAUCUC, the self-cleavage is reported as 0.04.
UAACAGGGGGCCGCAGCCGAAGCGCCCACGUCGCAGCCCCUGUUAGAUUCUGGUGAAUCUGCGACUUCAGCUGUAUAUCUC gave a self-cleavage of 0.05.
With UAACAGGGGGCCGCAGCCGAAGCGUUCACGUCGCAGCCCCUGUCAGAUUCCGGUGAAUCUGCGAAUUCCGCUGUAUAUCUC the self-cleavage was 0.25.
UAACAGGGGGCCGCAGCGGGAGCGUUCACGUCGCAGCACCUGUCAGAUUCAGGUGAAUCUGCGAAUACUGCUGUAUGUCUC showed a self-cleavage of 0.05.
Work on UAACAGGGGGCCGCAGCGGAGGCGUUCGCGUUGCAGCCCCCGUCAGAUUCUGGUGAGUCUGCGAAUUCUGCUGUAUAUCUC yielded a self-cleavage of 0.
UAACAGGGGGCCGCAGCGGAUGCGUUCACGUCCCAGCCCCUGUCAGAUACUGGUGAAUCUGCGAAUUCUGCUGUAUAUCUC showed a self-cleavage of 0.06.
Variant UAACAGGGGGCCGCAGCGGAAGCGUUCGCGUCGCAGCCCCUGUCAGAUUCUGGUGAUUCUGCGAAUUCUGCUGUAUAUCUC has a self-cleavage of 0.41.
With UAACAGGGGGCCGCAGCGGAAGCGUUCUCGUCGCAGCCCCUGUCAGAUUCUGGUGAAUCUGCGAAUUCUGCUGUAUAUCUC the self-cleavage was 0.36.
Work on UAACAGGGGGCCGCAGCGGAAGCGUUCACGUCGCAGCCCCUGUCAGAUUCUGGUGAAUCUGCGGUUUCUGCUGUAUAUCUC yielded a self-cleavage of 0.08.
With UAACAGGGGGCCGCAGCGGAAGCGUUCACGUUGCAGCCCCUGUCAGAUUUUGGUGAAUCUGCGAAUUCUGCUGUAUACCUC the self-cleavage was 0.02.
UAACAGGGGGCCGCAGCGGAAGCGUUCACGUCGCAGCCCCUGUUAGAUUCUGGUGAAUCUGCGAAUACUGCUGUAUAUCUC gave a self-cleavage of 0.05.
Work on UAACAGGGGGCCGCAGCGGAAGCGUUCACGUCGCAGCCCCUGUCAGAUUCUAGUGAAUCUGCGAACUCUGCUGUAUAUCUC yielded a self-cleavage of 0.13.
UAACAGGGGGCCGCAGCGGAAGCGAUCACGUCGCAGCCCCUGUCAGAUUCUGAUGAAUCUGCGAAUUCUGCUGUAUAUCUC gave a self-cleavage of 0.07.
Work on UAACAGGGGGCCGCAGCGGAAGCGCUCACAUCGCAGCCCCCGUCAGAUCCUGGUGAAUCUGCGAAUUCUGCUGUAUAUCUC yielded a self-cleavage of 0.05.
UAACAGGGGGCCGCAGCGGAAGCGCUCACGUCGCAGCCCCAGUCAGAUUCUGGUGAAUCUGCGAACUCUGCUGUGUAUCUC showed a self-cleavage of 0.39.
With UAACAGGGGGCCGCAGCGGAAGCGUACACGUCGCAGCCCCUGUCAGAUUCUGGUGAAUCUGCGAAUUCUGCUGUAUAUCUC the self-cleavage was 0.41.
For UAACAGGGGGCCGCAGCGGAAGCGUACACGUCGCAGCCCCUGUCGGUUUCUGGUGAAUCUGCGAAUUCUGCUGUAUAUCUC, the self-cleavage was 0.12.
With UAACAGGGGGCCGCAGCGGAAGCGUUCACGUCGCAGCCCCAGUCAGAUUCUGGUGAAUCUGCGAAUUCUGCUGUUUAUCUC the self-cleavage was 0.37.
Work on UAACAGGGGGCCGCAGCGGAAGCGUUCACGUCGCAGCCCCCGUCAGAUUCUGGUGAAUCCGCGAAUUCUGCUGUAUAUCUC yielded a self-cleavage of 0.31.
Variant UAACAGGGGGCCGCAGCGGAAGCGUUCACGUCGCAGCCCCGGUCAGAUUCUGGUGAAUCUGCGAAUUCAGCUGUAUAUCUC has a self-cleavage of 0.34.
UAACAGGGGGCCGCAGCGGAAGCGUUCACGUCGCAGCCCCUGCCAGAUUCUGGUGAAUCUGCGAAUUCUGCUGUAUAUCCC showed a self-cleavage of 0.08.
Variant UAACAGGGGGCCGCAGCGGAAGCGUUCACGUCGCAGCCCCUGGCAGAUUCUGGUGAAUCUGCGAAUUCUGCUGUAUAUCUC has a self-cleavage of 0.04.
UAACAGGGGGCCGCAGCGGAAGCGUUCACGUCGCAGCCCCUGUCAGAUCCUGGUGAAUCUGCGAUUUCUGCUGUAUAUCUC showed a self-cleavage of 0.08.
For UAACAGGGGGCCGCAGCGGAAGCGUUCACGUCGCAGCCCCUGUCAGAUUCUGGUGAAUCUGCGAAUACUGCUGUAUAUCUC, the self-cleavage was 0.23.
In the case of UAACAGGGGGCCGCAGCUGUAGCGUUCACGUCGCAGCCCCUGUCAGAUUCUGGUGAAUCUGCGAAUUCUGCUGUAUAUCUC, the self-cleavage is reported as 0.09.
In the case of UAACAGGGGGCCGCAGCUGAGGCGUUCACGUCGCAGCCCCUGUCAGAUUCUGGUGAAUCUGCGAAUUCUGCUGUAUAUCUC, the self-cleavage is reported as 0.21.
For UAACAGGGGGCCGCAGCUGAGGCGUUCACGUCGCAGCCCCUGUCAGAUUCUGGUGAACCUGCGAAUUCUGCUGUAUAUCUC, the self-cleavage was 0.11.
For UAACAGGGGGCCGCAGCUGAAGCGUUCGCGUCGCAGCCCCUGUCAGAUACUGGUGAACCCGCGAAUUCUGCUGUAUAUCUC, the self-cleavage was 0.15.
Work on UAACAGGGGGCCGCAGCUGAAGCGUUCUCGUCGCGGCCCCUGUCGGAUUCUGGUGAAUCUGCAAAUUCUGCUGUAUAUCUC yielded a self-cleavage of 0.06.
Variant UAACAGGGGGCCGCAGCUGAAGCGUUCUCGACGCAGCCCCUGUCAGAUUCUGGAGUAUCUGCGAUUUCUGCUGUAUAUCUC has a self-cleavage of 0.07.
Variant UAACAGGGGGCCGCAGCUGAAGCGUUCACGUCGCAGCCCCUGUCGGAUUCUGGUGAAUCUGCGAAUUCUGCUGUAUAUCUC has a self-cleavage of 0.17.
UAACAGGGGGCCGCAGCUGAAGCGUUCACGUCGCAGCCCCUGUCAGAUUCUGGUGAGUCUGCGAAUUCUGCUGUAUAUCUC gave a self-cleavage of 0.18.
Variant UAACAGGGGGCCGCAGCUGAAGCGUUCACGUCGCAGCCCCUGUCAGAUUCUGGUGAAUCUGCGAGUUCUGCUGUAUAUCUC has a self-cleavage of 0.17.
With UAACAGGGGGCCGCAGCUGAAGCAUUCACGUCGCAGCCCCUGUCAGAUUCUGGUGAAUCUGCGAAUUCUGCUGUAUGUCUC the self-cleavage was 0.42.
Work on UAACAGGGGGCCGCAGCUGAAGCGUUCACGUCGCAGCCCCUGUCAGAUUCUGGUUAAACUGCGAACACUGCUGUAAAUCUC yielded a self-cleavage of 0.16.
With UAACAGGGGGCCGCAGCUGAAGCGCUCAUGUCGCAGCCCCUGUCAGAUUCUGGUGAAUCUGCGAAUUCUGCUGUAUAUCUC the self-cleavage was 0.08.
UAACAGGGGGCCGCAGCUGAAGCGUCCGCGUCGCAGCCCCCGUCAGAUUCUGGUGAAUCUGCGUAUUCCGCUGUAUAUCUC showed a self-cleavage of 0.1.
For UAACAGGGGGCCGCAGCUGAAGCGUUCACGCCGCAGCCCCUGCCAGAUUCUGGUGAAUCUGCGAAUUCUGCUGUAAAUCUC, the self-cleavage was 0.2.
In the case of UAACAGGGGGCCGCAGCUGAAGCGUUCACGUCGCAGCCCCAGUCAGAAUCUGGUGAAUCUGCGAAUUCUGCUGUAUAUCUC, the self-cleavage is reported as 0.06.
For UAACAGGGGGCCGCAGCUGAAGCGUUCACGUCGCAGCCCCGGUCAGAUUCUGGUUAAACUGCGAAUACUGCUGUAUAUCUC, the self-cleavage was 0.07.
In the case of UAACAGGGGGCCGCAGCAGCAGCGUUCACGUCGCGGCCCCUGUCAGAUUCUGGUGAAUCUGCGAAUUCUGCUGUAUAUCUC, the self-cleavage is reported as 0.13.
For UAACAGGGGGCCGCAGCAGCAGCAUUCACGUCGCAGCCCCUGCCAGAUUCUGGUGAAUCUGCGAAUUCUGCUGUAUAUCGC, the self-cleavage was 0.05.
For UAACAGGGGGCCGCAGCAGCAGCGUUCACGUCGCAGCCCCUGUCAGAUUCCGGUGAAUCUGCGAAUUCUGCUGCAUAUCUC, the self-cleavage was 0.17.
With UAACAGGGGGCCGCAGCAGCAGCGUUCACGUCGCAGCCCCUGUCAGAUUCUGGCGAAUCUGCGAAUUCUGCUAUAUAUCUC the self-cleavage was 0.17.
Work on UAACAGGGGGCCGCAGCAGGGGCGUUCACGUCGCAGCCCCUGUCAGAUUCUGGUGAAUCUGCGAAUUCUGCUGUAUAUCUC yielded a self-cleavage of 0.3.
Variant UAACAGGGGGCCGCAGCAGGGGCGUUCACGUCGCAGCCCCUGUCAGGUUCUGGUGAAUCUGCGAAUUCUGCUGUAUAUCCC has a self-cleavage of 0.34.
For UAACAGGGGGCCGCAGCAGGGGCGUUCAUGACGCAGCCACUGUCAGAUUCUGGUGUAUCUGCGAAUUCUGCUGUAUAUCUC, the self-cleavage was 0.06.
In the case of UAACAGGGGGCCGCAGCAGGAGCGUUCGUGUCGCAGCCAUUGUCAGAUUCUGGUGAAUCUGCGAAUUCUGCUGUAUAUCUC, the self-cleavage is reported as 0.09.
Work on UAACAGGGGGCCGCAGCAGGAGCGUUCACGUCGCCGCCCCUGUCAAAUUCUGGUGAAUCUGCGAAUACCGCUGUAUAUCUC yielded a self-cleavage of 0.11.
Work on UAACAGGGGGCCGCAGCAGGAGCGUUCACGUCGCAGCCCCUGUCAGGUUCUGGUGAAUCUGCGAAUUCUGCUGUAUACCUC yielded a self-cleavage of 0.62.
Work on UAACAGGGGGCCGCAGCAGGAGCGUUCACGUCGCAGCCCCUGUCAGAUUCUGGUGUAUCUGCGAAUUAUGCUGUAUAUCUC yielded a self-cleavage of 0.23.
For UAACAGGGGGCCGCAGCAGGAGCGUUCACGUCGCAGCCCCUGUCAGAUUCUGGUGAUUCUGCGAAUUCUGCUGUAUGUCUC, the self-cleavage was 0.21.
